In patent US9617211B2, “Pyrrole derivatives as alpha 7 nAChR modulators” (Lupin Limited, priority 2013, dated 2017):
Some results were stated once for a whole list of compounds, not compound by compound.

These compounds were tested against T1, α7 nAChR (Homo sapiens, UniProt P36544) (assay: Cell-based real-time kinetic FLIPR Ca2+ assay of potentiation of agonist response (fold PAM activity) in IMR-32 cells). Details: test compound 1 μM, fold increase in response to agonist PNU-282987 (10 μM) vs agonist alone, human IMR-32 cells, intracellular Ca2+.
T1 construct: human IMR-32 cells with native expression of α7 nAChR; endogenous in cells; host or cells: IMR-32 (human neuroblastoma)
T1 sequence (P36544 23-502): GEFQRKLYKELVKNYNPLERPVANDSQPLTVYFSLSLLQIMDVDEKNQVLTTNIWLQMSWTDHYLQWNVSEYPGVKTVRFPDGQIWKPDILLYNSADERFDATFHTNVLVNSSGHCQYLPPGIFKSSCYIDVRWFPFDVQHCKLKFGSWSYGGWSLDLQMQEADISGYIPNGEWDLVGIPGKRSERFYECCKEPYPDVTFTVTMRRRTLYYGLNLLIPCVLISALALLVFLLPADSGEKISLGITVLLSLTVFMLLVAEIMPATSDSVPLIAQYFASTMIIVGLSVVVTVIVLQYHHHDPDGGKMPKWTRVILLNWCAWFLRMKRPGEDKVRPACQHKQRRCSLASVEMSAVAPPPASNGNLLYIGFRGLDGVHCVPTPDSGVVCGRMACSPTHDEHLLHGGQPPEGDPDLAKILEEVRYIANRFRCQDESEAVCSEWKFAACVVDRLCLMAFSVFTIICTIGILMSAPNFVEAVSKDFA

Structure (SMILES) | Fold activation at 1 μm conc. (Group)
Cc1c(C(=O)C2CC2)c(-c2ccc(S(N)(=O)=O)cc2)n(C)c1-c1ccc(Cl)cc1 [Compound 1, 4-(5-(4-chlorophenyl)-3-(cyclopropanecarbonyl)-1,4-dimethyl-1H-pyrrol-2-yl)benzenesulfonamide] | C (the compounds with activity above 15 folds are grouped as C)
Cc1c(C(=O)C2CC2)c(-c2ccc(S(N)(=O)=O)c(F)c2)n(C)c1-c1ccc(Cl)cc1 [Compound 2, 4-(5-(4-chlorophenyl)-3-(cyclopropanecarbonyl)-1,4-dimethyl-1H-pyrrol-2-yl)-2-fluorobenzenesulfonamide] | C (the compounds with activity above 15 folds are grouped as C)
Cc1c(C(=O)CC2CCC2)c(-c2ccc(S(N)(=O)=O)cc2)n(C)c1-c1ccc(Cl)cc1 [Compound 3, 4-(5-(4-chlorophenyl)-3-(2-cyclobutylacetyl)-1,4-dimethyl-1H-pyrrol-2-yl)benzenesulfonamide] | C (the compounds with activity above 15 folds are grouped as C)
Cc1c(C(=O)CC(C)C)c(-c2ccc(S(N)(=O)=O)cc2)n(C)c1-c1ccc(Cl)cc1 [Compound 4, 4-(5-(4-chlorophenyl)-1,4-dimethyl-3-(3-methylbutanoyl)-1H-pyrrol-2-yl)benzenesulfonamide] | B (the compounds with activity between 5.1 folds and 15 folds are grouped as B)
CCC(=O)c1c(C)c(-c2ccc(Cl)cc2)n(C)c1-c1ccc(S(N)(=O)=O)cc1 [Compound 5, 4-(5-(4-chlorophenyl)-1,4-dimethyl-3-propionyl-1H-pyrrol-2-yl)benzenesulfonamide] | B (the compounds with activity between 5.1 folds and 15 folds are grouped as B)
CC(=O)c1c(C)c(-c2ccc(Cl)cc2)n(C)c1-c1ccc(S(N)(=O)=O)cc1 [Compound 6, 4-(3-acetyl-5-(4-chlorophenyl)-1,4-dimethyl-1H-pyrrol-2-yl)benzenesulfonamide] | B (the compounds with activity between 5.1 folds and 15 folds are grouped as B)
CC(=O)c1c(C)c(-c2ccc(Cl)cc2)n(C)c1-c1ccc(S(N)(=O)=O)c(F)c1 [Compound 7, 4-(3-acetyl-5-(4-chlorophenyl)-1,4-dimethyl-1H-pyrrol-2-yl)-2-fluorobenzenesulfonamide] | C (the compounds with activity above 15 folds are grouped as C)
Cc1c(C(=O)CC2CC2)c(-c2ccc(S(N)(=O)=O)cc2)n(C)c1-c1ccc(Cl)cc1 [Compound 8, 4-(5-(4-chlorophenyl)-3-(2-cyclopropylacetyl)-1,4-dimethyl-1H-pyrrol-2-yl)benzenesulfonamide] | C (the compounds with activity above 15 folds are grouped as C)
Cc1c(C(=O)CC(C)C)c(-c2ccc(S(N)(=O)=O)c(F)c2)n(C)c1-c1ccc(Cl)cc1 [Compound 9, 4-(5-(4-chlorophenyl)-1,4-dimethyl-3-(3-methylbutanoyl)-1H-pyrrol-2-yl)-2-fluorobenzenesulfonamide] | C (the compounds with activity above 15 folds are grouped as C)
Cc1c(C(=O)C2CC2)c(-c2ccc(S(N)(=O)=O)cc2)n(C2CC2)c1-c1ccc(Cl)cc1 [Compound 10, 4-(5-(4-chlorophenyl)-3-(cyclopropanecarbonyl)-1-cyclopropyl-4-methyl-1H-pyrrol-2-yl)benzenesulfonamide] | A (compounds with activity between 1 to 5 folds are grouped as A)
CCC(=O)c1c(C)c(-c2ccc(Cl)cc2)n(C)c1-c1ccc(S(N)(=O)=O)c(F)c1 [Compound 11, 4-(5-(4-chlorophenyl)-1,4-dimethyl-3-propionyl-1H-pyrrol-2-yl)-2-fluorobenzenesulfonamide] | C (the compounds with activity above 15 folds are grouped as C)
CCn1c(-c2ccc(Cl)cc2)c(C)c(C(=O)C2CC2)c1-c1ccc(S(N)(=O)=O)cc1 [Compound 12, 4-(5-(4-chlorophenyl)-3-(cyclopropanecarbonyl)-1-ethyl-4-methyl-1H-pyrrol-2-yl)benzenesulfonamide] | A (compounds with activity between 1 to 5 folds are grouped as A)
Cc1c(C(=O)C2CC2)c(-c2ccc(S(N)(=O)=O)cc2)n(CC2CC2)c1-c1ccc(Cl)cc1 [Compound 13, 4-(5-(4-chlorophenyl)-3-(cyclopropanecarbonyl)-1-(cyclopropylmethyl)-4-methyl-1H-pyrrol-2-yl)benzenesulfonamide] | A (compounds with activity between 1 to 5 folds are grouped as A)
Cc1c(C(=O)CC2CC2)c(-c2ccc(S(N)(=O)=O)c(F)c2)n(C)c1-c1ccc(Cl)cc1 [Compound 14, 4-(5-(4-chlorophenyl)-3-(2-cyclopropylacetyl)-1,4-dimethyl-1H-pyrrol-2-yl)-2-fluorobenzenesulfonamide] | C (the compounds with activity above 15 folds are grouped as C)
Cc1c(C(=O)C2CC2)c(-c2ccc(S(N)(=O)=O)c(F)c2)n(C2CC2)c1-c1ccc(Cl)cc1 [Compound 15, 4-(5-(4-chlorophenyl)-3-(cyclopropanecarbonyl)-1-cyclopropyl-4-methyl-1H-pyrrol-2-yl)-2-fluorobenzenesulfonamide] | A (compounds with activity between 1 to 5 folds are grouped as A)
Cc1c(C(=O)CC(C)(C)C)c(-c2ccc(S(N)(=O)=O)cc2)n(C)c1-c1ccc(Cl)cc1 [Compound 16, 4-(5-(4-chlorophenyl)-3-(3,3-dimethylbutanoyl)-1,4-dimethyl-1H-pyrrol-2-yl)benzenesulfonamide] | A (compounds with activity between 1 to 5 folds are grouped as A)
Cc1c(C(=O)CC(C)(C)C)c(-c2ccc(S(N)(=O)=O)c(F)c2)n(C)c1-c1ccc(Cl)cc1 [Compound 17, 4-(5-(4-chlorophenyl)-3-(3,3-dimethylbutanoyl)-1,4-dimethyl-1H-pyrrol-2-yl)-2-fluorobenzenesulfonamide] | A (compounds with activity between 1 to 5 folds are grouped as A)
Cc1c(C(=O)CC2CCC2)c(-c2ccc(S(N)(=O)=O)c(F)c2)n(C)c1-c1ccc(Cl)cc1 [Compound 18, 4-(5-(4-chlorophenyl)-3-(2-cyclobutylacetyl)-1,4-dimethyl-1H-pyrrol-2-yl)-2-fluorobenzenesulfonamide] | C (the compounds with activity above 15 folds are grouped as C)
Cc1c(C(=O)N(C)C2CC2)c(-c2ccc(S(N)(=O)=O)cc2)n(C)c1-c1ccc(Cl)cc1 [Compound 19, 5-(4-chlorophenyl)-N-cyclopropyl-N, 1,4-trimethyl-2-(4-sulfamoylphenyl)-1H-pyrrole-3-carboxamide] | A (compounds with activity between 1 to 5 folds are grouped as A)
Cc1c(C(=O)N2CCCC2)c(-c2ccc(S(N)(=O)=O)cc2)n(C)c1-c1ccc(Cl)cc1 [Compound 20, 4-(5-(4-chlorophenyl)-1,4-dimethyl-3-(pyrrolidine-1-carbonyl)-1H-pyrrol-2-yl)benzenesulfonamide] | A (compounds with activity between 1 to 5 folds are grouped as A)
Cc1c(C(=O)N2CC3CC3C2)c(-c2ccc(S(N)(=O)=O)cc2)n(C)c1-c1ccc(Cl)cc1 (stereo not shown) [Compound 21, 4-(3-(3-azabicyclo[3.1.0]hexane-3-carbonyl)-5-(4-chlorophenyl)-1,4-dimethyl-1H-pyrrol-2-yl)benzenesulfonamide] | A (compounds with activity between 1 to 5 folds are grouped as A)
Cc1c(C(=O)N2CC3CC3C2)c(-c2ccc(S(N)(=O)=O)c(F)c2)n(C)c1-c1ccc(Cl)cc1 (stereo not shown) [Compound 22, 4-(3-(3-azabicyclo[3.1.0]hexane-3-carbonyl)-5-(4-chlorophenyl)-1,4-dimethyl-1H-pyrrol-2-yl)-2-fluorobenzenesulfonamide] | A (compounds with activity between 1 to 5 folds are grouped as A)
Cc1c(C(=O)NC2CC2)c(-c2ccc(S(N)(=O)=O)cc2)n(C)c1-c1ccc(Cl)cc1 [Compound 23, 5-(4-chlorophenyl)-N-cyclopropyl-1,4-dimethyl-2-(4-sulfamoylphenyl)-1H-pyrrole-3-carboxamide] | A (compounds with activity between 1 to 5 folds are grouped as A)
CNC(=O)c1c(C)c(-c2ccc(Cl)cc2)n(C)c1-c1ccc(S(N)(=O)=O)cc1 [Compound 24, 5-(4-chlorophenyl)-N, 1,4-trimethyl-2-(4-sulfamoylphenyl)-1H-pyrrole-3-carboxamide] | A (compounds with activity between 1 to 5 folds are grouped as A)
Cc1c(C(=O)N(C)C)c(-c2ccc(S(N)(=O)=O)cc2)n(C)c1-c1ccc(Cl)cc1 [Compound 25, 5-(4-chlorophenyl)-N,N, 1,4-tetramethyl-2-(4-sulfamoylphenyl)-1H-pyrrole-3-carboxamide] | A (compounds with activity between 1 to 5 folds are grouped as A)
